Screen size: about 48,000 compounds; about 550 (1.1%) were called active. Another 4% or so got no clear call; they are omitted. No stated cut-off is given here; in the data, active means potency below about 15 µM; inconclusive means mostly about 16 µM to 33 µM; inactive means weaker than that. Some of the results follow.
Potency means the concentration at half of the fitted maximal effect.

Sequence of UniProt P04062 (P04062 whole entry, looked up): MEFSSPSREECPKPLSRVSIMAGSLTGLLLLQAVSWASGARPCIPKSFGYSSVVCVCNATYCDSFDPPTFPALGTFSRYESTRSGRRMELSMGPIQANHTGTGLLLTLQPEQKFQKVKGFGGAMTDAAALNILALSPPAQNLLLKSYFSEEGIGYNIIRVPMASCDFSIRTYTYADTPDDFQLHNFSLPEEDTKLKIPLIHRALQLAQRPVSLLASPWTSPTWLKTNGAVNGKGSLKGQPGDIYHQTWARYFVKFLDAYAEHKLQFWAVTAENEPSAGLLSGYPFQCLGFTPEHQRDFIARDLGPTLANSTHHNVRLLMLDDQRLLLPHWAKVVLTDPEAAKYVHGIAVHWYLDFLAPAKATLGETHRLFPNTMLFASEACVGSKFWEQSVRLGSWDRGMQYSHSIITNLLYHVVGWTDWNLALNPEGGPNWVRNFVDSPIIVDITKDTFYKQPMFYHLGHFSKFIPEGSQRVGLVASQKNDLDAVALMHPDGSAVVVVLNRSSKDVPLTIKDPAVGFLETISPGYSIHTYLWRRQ

This experiment concerns the target Lysosomal acid glucosylceramidase (Homo sapiens) (UniProt P04062). Description: Glucocerebrosidase.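 Further: the screen sought inhibitors.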 As to conditions: purified enzyme, resorufin glucoside fluorescence (screen aimed at inhibitors), 20 min; series mostly up to 77 µM. A digest of the protocol:
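Wild-type enzyme at 0.2 nM final in 50mM citric acid/KH2PO4, 10mM sodium taurocholate, 0.01% tween-20, pH 5.9, with resorufin beta-D-glucopyranoside at 30 uM final. Compounds titrated, 20 min at RT, red fluorescence read; AC50 from titration.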
`COCCn1c(=S)[nH]c2cc(C(=O)N3CCC(C(N)=O)(N4CCCCC4)CC3)ccc2c1=O`: the Potency was inactive: > 76.9 µM.
Then `CCOC(=O)c1ccc(NC(=O)CSc2nnc(COc3ccccc3)n2C)cc1`, with inactive: > 76.9 µM.
Then `COc1ccccc1C(=O)N1CCNC(=O)C1CC(=O)Nc1ccc(Cl)cc1` (stereo not drawn), with inactive: > 76.9 µM; and `CCOC(=O)c1c(C2CC2)csc1NC(C)=O`, with inactive: > 76.9 µM.
Then `CC(=O)Nc1ccc(S(=O)(=O)NCc2cn3c(C)csc3n2)cc1`, with inactive: > 76.9 µM; and `O=C(CSc1ncnc2c1oc1ccccc12)c1cccs1`, with inactive: > 76.9 µM; and `CC1(C)CC(CCC(=O)Nc2ccc(S(N)(=O)=O)cc2)C(=O)O1` (stereo not drawn), with inactive: > 76.9 µM.
With `O=C(CSc1nnc(CNC(=O)c2cccs2)o1)NCCc1ccccc1`, the Potency was inactive: > 76.9 µM.
For `N#Cc1c(/N=C/c2cccs2)sc2c1CCC2`, the Potency result was “inactive”.
Then `CCOC(=O)c1ccc(NC(=O)CSc2nc(SC)ns2)cc1`, with inactive: > 76.9 µM; and `Cn1c(=O)[nH]c(=O)c2c1nc(NC1CCCCC1)n2CC(=O)NC1CCCCC1`, with inactive: > 76.9 µM.
Then `O=C(c1cc(-c2ccccc2)on1)N1CCN(C(=O)c2ccco2)CC1`, with inactive: > 76.9 µM; and `CCCN1CN(Cc2ccccc2)CC2=C1CC(C)(C)CC2=O`, with inactive: > 76.9 µM.
As for `O=C(CSc1nnc(NC(=O)c2ccco2)s1)NC1CCCCC1`, the Potency is inactive: > 76.9 µM.
Next, `Cc1noc(C)c1Cn1nc(C(=O)O)c2ccccc2c1=O`: inactive: > 76.9 µM; `CCN1C(=S)SC(=O)C1=C1C=C(C)N(CCO)C(C)=C1`: inactive: > 76.9 µM.
Next, `COc1ccc(CN2C(=O)CN(C3CCCCCC3)C(=O)C2c2ccc(OC)c(OC)c2)cc1` (stereo not drawn): inactive: > 76.9 µM; `Cc1sc2ncn(CC(=O)N(CC(=O)NC3CCCC3)Cc3cccs3)c(=O)c2c1C`: inactive: > 76.9 µM; `Cc1ccc(-n2c(C)nc3oc4ccccc4c(=O)c3c2=O)cc1`: inactive: > 76.9 µM.
For `CCCS(=O)(=O)N1CCCC(C(=O)NCCCN2CCN(c3ccccc3F)CC2)C1` (stereo not drawn), the Potency was inactive: > 76.9 µM.
Then `Cc1cccc(NC(=O)CSc2nnc(CCCCCNC(=O)OC(C)(C)C)o2)c1C`, with inactive: > 76.9 µM.
Then `N#Cc1nc(-c2ccc(OCc3ccc(Cl)cc3)cc2)oc1N1CCC(C(N)=O)CC1`, with inactive: > 76.9 µM; and `COc1ccc(-n2c(SCC#N)nnc2-c2cccnc2)cc1`, with inactive: > 76.9 µM; and `Cc1cc(NC(=O)CCC2CCCC2)no1`, with inactive: > 76.9 µM.
Next, `COC(=O)C1=C(C)C(c2ccc(OC)cc2OC)NC(=O)N1` (stereo not drawn): inactive: > 76.9 µM; `O=C(Cn1nc(Cl)nc1Cl)c1ccc2c(c1)OCCO2`: inactive: > 76.9 µM; `CCCCC(=O)Nc1ccc(C(=O)N2CCCC(C(=O)OCC)C2)cc1` (stereo not drawn): inactive: > 76.9 µM.
For `CCOC(=O)CN1C(=O)COc2ccc(Cl)cc21`, the Potency was inactive: > 76.9 µM.
As to `Cc1ccc(Oc2nsnc2N2CCOCC2)cc1`, the Potency was inactive: > 76.9 µM.
Next, `CCN1CCCC1Cn1cnc2c([nH]c3ccc(Cl)cc32)c1=O` (stereo not drawn): inactive: > 76.9 µM.
Consider `Cc1cc(NC(=O)CCC(=O)N(Cc2ccco2)C2(C(=O)NC3CCCCC3)CCN(C)CC2)no1`, for which the Potency is inactive: > 76.9 µM.
Take `O=C(O)C1C2CCC(O2)C1C(=O)NCc1ccncc1` (stereo not drawn): the Potency was inactive: > 76.9 µM.
`CN=C1SC(CC(=O)Nc2cc(Cl)ccc2Cl)C(=O)N1C` (stereo not drawn): the Potency was inactive: > 76.9 µM.
On to `Cc1nnc(SCc2cnc(-c3ccccc3)o2)[nH]c1=O`, for which the Potency was inactive: > 76.9 µM.
In the case of `Cc1cc(C)nc(NS(=O)(=O)c2ccc(NC(=O)NC3CCCCC3)cc2)n1`, the Potency was inactive: > 76.9 µM.
Next, `Cc1csc(NC(=O)CNC(=O)OCc2ccccc2)n1`: inactive: > 76.9 µM; `CCOC(=O)c1cc(C(C)=O)c(=O)n(C)c1N`: inactive: > 76.9 µM.
Then `CCc1ccc(-c2nn[nH]n2)cc1`, with inactive: > 76.9 µM; and `CCCOc1ccc(Cc2nn3c(=O)/c(=C/c4ccco4)sc3nc2=O)cc1`, with inactive: > 76.9 µM.
Then `O=C(CN(Cc1cccs1)C(=O)CNC(=O)c1ccco1)NC1CCCCC1`, with inactive: > 76.9 µM.
In the case of `COc1ccccc1C(c1nnnn1C1CCCC1)N1CCN2CCCC2C1` (stereo not drawn), the Potency was inactive: > 76.9 µM.
Turning to `CN1C(=S)SC(/[N+]([O-])=C/c2cccnc2)C1(C)C` (stereo not drawn), the Potency is inactive: > 76.9 µM.
`CCOC(=O)c1c(NC(=O)CC)sc(C(C)=O)c1C`: the Potency was inactive: > 76.9 µM.
In the case of `COc1ccc(C(=O)n2cnc(N)n2)cc1`, the Potency is inactive: > 76.9 µM.
With `NC(=O)C1CCN(C(c2ccccc2Cl)c2nnnn2Cc2ccc3c(c2)OCO3)CC1` (stereo not drawn), the Potency is inactive: > 76.9 µM.
On to `Cc1ccc(NC2=NC(c3ccco3)n3c(nc(C)cc3=O)N2)c(C)c1` (stereo not drawn), for which the Potency was inactive: > 76.9 µM.
With `Cc1ccc(C(=O)Nc2nc3c(s2)CCCC3)o1`, the Potency was inactive: > 76.9 µM.
Next, `Cn1c(=O)n(CC(=O)NC2CCCCC2)c(=O)c2ccccc21`: “inactive”; `O=c1[nH][nH]c2nc(C(F)(F)F)cc(C(F)(F)F)c12`: inactive: > 76.9 µM.
Take `Cn1c(SCCCC(=O)c2ccccc2)nnc1-c1ccncc1`: the Potency was inactive: > 76.9 µM.
Then `O=C(COC(=O)c1cccs1)Nc1ccccc1`, with inactive: > 76.9 µM; and `CC1(C)CC(O)C(C)(C)N1O` (stereo not drawn), with inactive: > 76.9 µM.
Then `Cc1nc2cc(NC(=O)N3c4ccccc4CC3C)ccc2o1` (stereo not drawn), with inactive: > 76.9 µM; and `CC(C)CN(Cc1cc2ccccc2[nH]c1=O)C(=O)c1cccnc1`, with inactive: > 76.9 µM.
Then `CC(C)C(c1nnnn1Cc1ccc(F)cc1)N1CCN(C(=O)c2ccco2)CC1` (stereo not drawn), with inactive: > 76.9 µM; and `Cc1ccc(S(=O)(=O)N2CCC(C(=O)N3CCC(C(=O)NCC4CCCO4)CC3)CC2)cc1` (stereo not drawn), with inactive: > 76.9 µM.
Take `CCCCN(CC)CCNC(=O)C1c2cc(OC)c(OC)cc2C(=O)N2CCc3ccccc3C12` (stereo not drawn): the Potency is inactive: > 76.9 µM.
For the molecule `CN(C)C(CNC(=O)CN1C(=O)NC2(CCc3ccccc32)C1=O)c1ccco1` (stereo not drawn), the Potency is inactive: > 76.9 µM.
Turning to `Cc1cc(NC(=O)CSc2nnc3c(C)cc4cc(C)c(C)cc4n23)no1`, the Potency was inactive: > 76.9 µM.
Then `O=C(O)CCC(=O)c1c[nH]c2ccccc12`, with inactive: > 76.9 µM; and `Cc1nn(Cc2ccc(Cl)c(Cl)c2)c(C)c1NC(=O)c1cc(-c2ccco2)on1`, with inactive: > 76.9 µM; and `COc1cc(C2C(C#N)=C(N)OC3=C2C(=O)CC(C)(C)C3)ccc1OC(=O)N1CCOCC1` (stereo not drawn), with inactive: > 76.9 µM.
For the molecule `COCc1nc2ccccc2n1Cc1ccccc1`, the Potency was inactive: > 76.9 µM.
In the case of `Cc1ccc(S(=O)(=O)N2CCCCC2)cc1C(=O)Nc1ncn[nH]1`, the Potency is inactive: > 76.9 µM.
Next, `Fc1ccc(CSc2ncnc3c2oc2ccccc23)cc1`: “inactive”.
With `CCCNCc1cc(OCC)c(OCC(N)=O)cc1Br`, the Potency was inactive: > 76.9 µM.
Next, `Cc1noc(C)c1C(=O)N1CCN(c2ncccn2)CC1`: inactive: > 76.9 µM; `O=C(OC1CCOC1=O)c1ccc(S(=O)(=O)N2CCCCCC2)cc1` (stereo not drawn): inactive: > 76.9 µM; `CC1CN(c2nc3ccccc3nc2C(C#N)C(=O)NCc2ccc3c(c2)OCO3)CC(C)O1` (stereo not drawn): inactive: > 76.9 µM.
Consider `CCOC(=O)c1c(C)[nH]c(C(=O)COC(=O)c2ccncc2)c1C`, for which the Potency was inactive: > 76.9 µM.
Next, `O=C(c1ccccc1)c1cc2ccccc2o1`: inactive: > 76.9 µM.
As for `CSc1cccc(NC(=O)C2CCCN(S(=O)(=O)c3ccc(F)cc3)C2)c1` (stereo not drawn), the Potency was inactive: > 76.9 µM.
In the case of `CCOC(=O)C1CCCN(C/C(O)=C(\C#N)c2nc(-c3ccccc3)cs2)C1` (stereo not drawn), the Potency is inactive: > 76.9 µM.
Then `O=C(CCc1nc2ccccc2s1)N1CCN(S(=O)(=O)c2cccs2)CC1`, with inactive: > 76.9 µM; and `Cc1c(-c2cccs2)[n+](=O)c2c(n1[O-])CCC2`, with inactive: > 76.9 µM.
For the molecule `O=C(O)CCC(=O)c1cccc2ccccc12`, the Potency is inactive: > 76.9 µM.
For the molecule `CSc1nc2c(c(=O)n1-c1ccc(F)cc1)SCC2`, the Potency is inactive: > 76.9 µM.
Then `CCOC(=O)C1=C(C)NC(=O)C(C#N)C1c1ccco1` (stereo not drawn), with inactive: > 76.9 µM; and `CSc1ncccc1C(=O)OCc1ccccc1F`, with inactive: > 76.9 µM.
Next, `CC(=O)c1c(C)[nH]c(C(=O)OC2CCOC2=O)c1C` (stereo not drawn): inactive: > 76.9 µM; `O=C(Cn1nnc2c(cnn2-c2ccccc2)c1=O)N1CCN(c2ccccc2F)CC1`: inactive: > 76.9 µM.
Then `CCOc1ccccc1Nc1nnc(Cc2ccccc2Cl)c(=O)[nH]1`, with inactive: > 76.9 µM; and `CCCNC(=O)CC1Sc2ccccc2NC1=O` (stereo not drawn), with inactive: > 76.9 µM.
In the case of `CCCn1c(SCC(=O)Nc2c(C)cccc2C)nnc1C(C)C`, the Potency is inactive: > 76.9 µM.
With `O=C(NCc1cccnc1)C1CCN(C(=O)c2ccc(Cl)cc2Cl)CC1`, the Potency is inactive: > 76.9 µM.
Regarding `O=C(Nc1ccccn1)N1CCOCC1`, the Potency is inactive: > 76.9 µM.
As for `O=C(NC(=Nc1ccccc1)N1CCOCC1)Nc1ccccc1`, the Potency is inactive: > 76.9 µM.
Next, `COc1ccc(S(=O)(=O)N(C)CC(=O)Nc2ccccc2SC)cc1`: inactive: > 76.9 µM.
Next, `CC1=C(C(=O)N2CCOCC2)C(c2ccccc2F)C2=C(CC(C)(C)CC2=O)N1` (stereo not drawn): inactive: > 76.9 µM; `CCOC(=O)C1CCCN(Cc2ccccc2F)C1` (stereo not drawn): inactive: > 76.9 µM.
Next, `CCOC(=O)C1CCN(S(=O)(=O)c2ccc3c(c2)CCCN3C(C)=O)CC1`: inactive: > 76.9 µM; `Cc1noc(C)c1COc1cccc(C(=O)OCCOc2ccc(F)cc2)c1`: inactive: > 76.9 µM.
Consider `Cc1ccccc1OC(C)c1nc(-c2ccccc2)no1` (stereo not drawn), for which the Potency is inactive: > 76.9 µM.

These data come from PubChem BioAssay AID360 (National Center for Advancing Translational Sciences (NCATS), 2006).
